According to PubChem BioAssay AID504339 (National Center for Advancing Translational Sciences (NCATS), 2011):
Among all 390,000 compounds or so, about 17,000 (4.4%) were called active. The shares of active, inactive and inconclusive entries below differ from those in the screen. The call rests on the fitted dose curve; in most records, active means well fitted inhibition curve with a large enough effect; inconclusive means small, poorly fitted or top-dose-only effect; inactive means no such curve, though single readings can be large or run the other way. Potencies of inconclusive entries are doubtful fits and often do not repeat.

biological target: Lysine-specific demethylase 4A (Homo sapiens) (UniProt O75164); experiment: qHTS Assay for Inhibitors of JMJD2A-Tudor Domain; conditions: AlphaScreen JMJD2A-Tudor / H3K4me3 peptide binding; activity change, negative = inhibition: at 114 µM (top of the series); further: nearly all actives have a fitted effect of over 50% in size
Sequence of UniProt O75164 (O75164 whole entry, looked up, the tested form may be a part): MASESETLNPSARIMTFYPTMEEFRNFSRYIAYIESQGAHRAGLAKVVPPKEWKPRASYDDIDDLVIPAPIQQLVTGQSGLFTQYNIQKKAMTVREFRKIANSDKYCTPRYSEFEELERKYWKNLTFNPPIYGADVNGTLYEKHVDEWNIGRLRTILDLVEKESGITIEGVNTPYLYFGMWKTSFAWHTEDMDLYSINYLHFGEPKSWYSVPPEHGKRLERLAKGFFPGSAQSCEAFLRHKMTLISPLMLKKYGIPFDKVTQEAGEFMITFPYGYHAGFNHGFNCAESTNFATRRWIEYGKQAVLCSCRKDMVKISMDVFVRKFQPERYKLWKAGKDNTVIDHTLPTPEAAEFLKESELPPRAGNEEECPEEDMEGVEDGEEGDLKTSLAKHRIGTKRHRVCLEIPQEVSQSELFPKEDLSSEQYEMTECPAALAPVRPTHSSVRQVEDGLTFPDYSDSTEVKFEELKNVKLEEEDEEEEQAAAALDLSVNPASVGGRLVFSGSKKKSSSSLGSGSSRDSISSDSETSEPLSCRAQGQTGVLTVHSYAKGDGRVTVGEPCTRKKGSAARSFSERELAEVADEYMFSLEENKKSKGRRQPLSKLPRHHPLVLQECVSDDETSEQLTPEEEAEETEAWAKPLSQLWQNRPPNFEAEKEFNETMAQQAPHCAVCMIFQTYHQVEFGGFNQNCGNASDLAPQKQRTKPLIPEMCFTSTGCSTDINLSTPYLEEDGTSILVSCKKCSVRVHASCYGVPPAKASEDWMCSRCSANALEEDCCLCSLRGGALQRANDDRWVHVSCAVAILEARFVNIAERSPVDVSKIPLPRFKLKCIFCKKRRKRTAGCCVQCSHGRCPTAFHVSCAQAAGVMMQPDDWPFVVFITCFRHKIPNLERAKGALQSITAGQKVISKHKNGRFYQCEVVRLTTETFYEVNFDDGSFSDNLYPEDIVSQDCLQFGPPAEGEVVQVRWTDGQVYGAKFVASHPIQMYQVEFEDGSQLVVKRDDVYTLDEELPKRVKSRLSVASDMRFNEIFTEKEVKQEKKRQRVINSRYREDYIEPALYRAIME
On the % scale 0 is the no-effect control and ±100 the full control effect; potency means the concentration at half of the fitted maximal effect; tags describe the fitted curve by direction and shape.

Compound | Potency | activity change, negative = inhibition
CC(=O)N1C(=O)CC(C)N(C(C)=O)c2ccc([N+](=O)[O-])cc21 (stereo unspecified) | inconclusive: 89.1 µM [inhibitor, single point] | –
CS(=O)(=O)c1ccc(-c2nnc(NC(=O)C3=COCCO3)o2)cc1 | inconclusive: 3.55 µM [inhibitor, full curve, poor fit] | –
Clc1ccc2nc(-c3ccc(Br)o3)c(Nc3ccc4c(c3)OCCO4)n2c1 | – | inactive: -17%
CC(=O)N1CCCc2cc(S(=O)(=O)N3CCN(c4ccc(F)cc4)CC3)ccc21 | – | inactive: -28.4%
CCC(=O)OCCCNc1nc(-c2ccc(Cl)cc2)nc2ccccc12 | – | inactive: 42.9%
Nc1cc(=O)[nH]c(SCC(=O)Nc2cc([N+](=O)[O-])ccc2Cl)n1 | inconclusive: 20 µM [inhibitor, full curve] | –
COc1cc(N2C(=O)C=CC2=O)ccc1N1C(=O)C=CC1=O | active: 4.47 µM | –
Cc1nc(-c2ccc(S(=O)(=O)Nc3ccccc3C)cc2)co1 | – | inactive: -26.7%
Cc1cccc(-n2ccnc2SCC(=O)Nc2nccs2)c1C | – | inactive: 5.48% [at 11.4 µM]
Cc1ncc(CO)c(/C=N/NC(=O)c2cc(Br)ccc2O)c1O | active: 79.4 µM | –
CC(C)Cn1c(N)c(C(=O)COC(=O)C2CCCCC2)c(=O)n(C)c1=O | active: 25.1 µM | –
CC12CCC(O)CC1=CCC1C2CCC2(C)C(c3ccn[nH]3)CCC12 (stereo unspecified) | – | inactive: -11.7%
Cn1c(N/N=C/c2c[nH]c3ccccc23)nc2ccccc21 | active: 50.1 µM | –
COCc1cc(N2CCCCC2)nc(-c2ccccc2)n1 | active: 20 µM | –
CC(C)c1ccccc1OCC(O)CN1CCN(S(=O)(=O)c2ccc([N+](=O)[O-])cc2)CC1 (stereo unspecified) | active: 20 µM | –
COc1ccc(-n2nc(C(=O)N(C)C)nc2-c2ccccc2)cc1 | – | inactive: -9.59%
COc1ccc(-c2nc3ccccc3s2)cc1NC(=O)c1cc2ccccc2o1 | – | inactive: -15.8%
CN(CC(=O)Nc1ccc(F)cc1F)S(=O)(=O)c1ccc(C(=O)N2CCOCC2)s1 | – | inactive: -11.3%
CN(C)c1ccc(N=Nc2ccccc2Br)cc1 | active: 10 µM | –
Cc1ccc2oc3c(c(=O)c2c1)C(c1cccc(Cl)c1)N(CCCN1CCOCC1)C3=O (stereo unspecified) | – | inactive: -20%
Cc1ccc(OCC(=O)Nc2nnc(S(=O)(=O)N3CCCCCC3)s2)cc1C | – | inactive: -4.26%
N#Cc1c(NC(=O)CSc2ncn(-c3ccccc3)n2)sc2c1CCCC2 | inconclusive: 79.4 µM [inhibitor, partial curve] | –
Cc1ccccc1OCCNc1cc(N2CCCCC2)ccc1[N+](=O)[O-] | inconclusive: 15.8 µM [inhibitor, full curve] | –
Cc1cc(/C=N/n2cnnc2)c(C)n1-c1ccc(OCc2ccc(Cl)cc2Cl)cc1 | active: 56.2 µM | –
CCC1c2ccc(C)n2CCN1C(=O)Nc1cc(Cl)ccc1OC (stereo unspecified) | inconclusive: 79.4 µM [inhibitor, partial curve] | –
COc1cc(NS(=O)(=O)c2ccc(NC(=S)NC(=O)c3sc4cc(F)ccc4c3Cl)cc2)nc(OC)n1 | inconclusive: 35.5 µM [inhibitor, partial curve] | –

Compound | Potency | activity change, negative = inhibition
Cc1nc(C)c(C(=O)NNS(=O)(=O)c2ccc([N+](=O)[O-])cc2)s1 | active: 2 µM | –
CCCn1c(N2CCN(C(=O)Nc3ccc(Cl)cc3)CC2)nc2ccccc21 | active: 100 µM | –
S=c1[nH]nc(C2CCCCC2)n1/N=C/c1ccccc1 | active: 56.2 µM | –
Cc1nn(-c2ncc(C(F)(F)F)cc2Cl)c(=O)n1-c1ccc(F)cc1 | active: 50.1 µM | –
NNC(=O)c1oc2nc(-c3ccccc3)cc(-c3ccco3)c2c1N | inconclusive: 50.1 µM [inhibitor, partial curve] | –
O=C(CN1CCOCC1)Nc1cc(C(F)(F)F)ccc1Cl | inconclusive: 22.4 µM [inhibitor, single point] | –
O=C(Nc1ccc(CN2CCCCC2)cc1)c1sc2ccccc2c1Cl | – | inactive: -26.6%
Cc1ccc(S(=O)(=O)c2c(C)nn(-c3ccccc3)c2OC(=O)c2ccccc2F)cc1 | inconclusive: 50.1 µM [inhibitor, partial curve] | –
COc1ccc(-c2nc(NC(=O)CCNC(=O)c3ccco3)sc2C)cc1 | inconclusive: 63.1 µM [inhibitor, partial curve] | –
CN(CCO)CCOCCOc1cccc2ccccc12 | active: 10 µM | –
CC1Sc2ccc(S(=O)(=O)CCC(=O)N3CCN(c4cccc(Cl)c4)CC3)cc2NC1=O (stereo unspecified) | inconclusive: 100 µM [inhibitor, single point] | –
O=S(=O)(NC1CCCC1)c1cc(F)ccc1F | – | inactive: -5.32%
CCSc1ncc(Cl)c(C(=O)N2CCN(c3ccc(OC)cc3)CC2)n1 | inconclusive: 44.7 µM [inhibitor, partial curve] | –
Cc1cc(NC(=O)CCC(=O)N(CC2CCCO2)C(C(=O)NC2CCCC2)c2cccnc2)no1 (stereo unspecified) | inconclusive: 22.4 µM [inhibitor, single point] | –
CCCC[C@@H](CN[C@H](C)CNC)NCC1CCC(C(C)(C)C)CC1 (stereo partly specified) | inconclusive: 10 µM [inhibitor, full curve] | –
NS(=O)(=O)Nc1c(Br)cc(Br)c2cccnc12 | inconclusive: 89.1 µM [inhibitor, single point] | –
COC(=O)c1cc(C(=O)N2CCN(c3cccc(C)c3C)CC2)cc([N+](=O)[O-])c1 | inconclusive: 14.1 µM [inhibitor, full curve, poor fit] | –
CCOC(=O)CSc1nc2c(sc3ccc([N+](=O)[O-])cc32)c(=O)n1Cc1ccco1 | – | inactive: -14.4%
Cc1c(C(=O)N(C)c2cccc(C(F)(F)F)c2)sc2nc3n(c(=O)c12)CCCCC3 | inconclusive: 89.1 µM [inhibitor, single point] | –
Cc1[nH]n(-c2ccccc2)c(=O)c1-c1ccc(Cl)cc1 | active: 79.4 µM | –
Cc1ccc(-c2nnc(NC(=O)c3ccco3)o2)c(C)c1 | – | inactive: -14.5%
CC(=O)N1CCN(S(=O)(=O)c2cccc(C(=O)N(Cc3ccccc3)c3cccc(C)c3)c2)CC1 | – | inactive: -9.66%
C=CCNc1nnc(Cc2ccc(C(C)C)cc2)c(=O)[nH]1 | active: 56.2 µM | –
O=C(Nc1ncc(Cc2cccc(C(F)(F)F)c2)s1)c1ccc(-c2cccc([N+](=O)[O-])c2)o1 | inconclusive: 15.8 µM [inhibitor, full curve, poor fit] | –
O=C(Nc1cccc(S(=O)(=O)N2CCCCC2)c1)C1=NN(c2ccccc2)C(=O)CC1 | inconclusive: 79.4 µM [inhibitor, partial curve] | –
O=C(Nc1ccc(F)cc1F)c1ccc2c(=O)n3c(nc2c1)CCCCC3 | – | inactive: -4.44%

Compound | Potency | activity change, negative = inhibition
Cc1ccc(C)c(/C=C/C(=O)c2ccccc(=O)c2O)c1 | inconclusive: 56.2 µM [inhibitor, partial curve] | –
CCCCNc1c(-c2ccc(OC)c(SC(C)CC)c2)nc2ccc(C)cn12 (stereo unspecified) | inconclusive: 56.2 µM [inhibitor, partial curve] | –
CC1C(=O)N2CCCc3cc(S(=O)(=O)Nc4ccccc4F)cc1c32 (stereo unspecified) | – | inactive: -8.9%
O=C(Nc1ccc(Br)cc1F)c1ccc2nsnc2c1 | inconclusive: 14.1 µM [inhibitor, full curve] | –
COC(=O)COc1ccccc1C(N)=O | – | inactive: 13.7%
COc1ccc(NC(=O)N[C@@H](Cc2ccccc2)C(=O)NN)cc1 | inconclusive: 89.1 µM [inhibitor, single point] | –
O=C(NNC(=O)c1cccc2ccccc12)c1ccc2c(c1)OCO2 | – | inactive: 4.86%
O=c1c2ccccc2nc(-c2cccc(Cl)c2)n1O | inconclusive: 79.4 µM [inhibitor, single point] | –
Cc1ccc(C)c(Cn2c(CN(C)Cc3ccccc3)nc3c2c(=O)n(C)c(=O)n3C)c1 | – | inactive: -27.8%
CCN1C(=O)/C(=C\N(C)C)NC1=S | – | inactive: -19.6%
CCOc1ccc(CNC(=O)C2CCN(c3nnc(C)c4c(C)n(-c5ccc(C)cc5)nc34)CC2)cc1 | inconclusive: 17.8 µM [inhibitor, partial curve] | –
CCOC(=O)CSC1=C(C#N)C(c2ccccc2)C(C(C)=O)=C(C)N1 (stereo unspecified) | inconclusive: 89.1 µM [inhibitor, single point] | –
CSc1nn(Cc2ccc(Br)cc2)c(N(C(C)=O)C(C)=O)c1S(=O)(=O)c1ccccc1 | – | inactive: 2.05%
CC(C)n1c(=S)[nH]c2ccccc21 | active: 79.4 µM | –
CCCNC(=O)c1ccc(N2CCC3(CC2)CC(c2ccccc2)=NO3)c(NC(=O)c2ccc(Br)cc2)c1 | inconclusive: 100 µM [inhibitor, single point] | –
Cc1ccc(-n2c(C)cc(/C=N/NC(=O)c3ccncc3)c2C)cc1C | inconclusive: 56.2 µM [inhibitor, partial curve, poor fit] | –
CCC(C(=O)NC1CCCCCC1)n1nc(C)c2c(C)n(-c3ccccc3)nc2c1=O (stereo unspecified) | inconclusive: 17.8 µM [inhibitor, full curve, poor fit] | –
O=C(Cn1cc(S(=O)(=O)Cc2ccc(F)cc2)c2ccccc21)NCc1ccccc1Cl | – | inactive: -27.7%
Cc1ccccc1CSc1nnc2[nH]c(=O)cc(C)n12 | – | inactive: -8.44%
CCOc1ccc(NC(=O)CSc2nnc(-c3ccc(C)cc3)c(-c3ccc(C)cc3)n2)cc1 | inconclusive: 44.7 µM [inhibitor, partial curve] | –
COc1ccccc1OCCCN1C(=O)C(=O)c2cccc(C)c21 | inconclusive: 79.4 µM [inhibitor, partial curve] | –
CCc1cccc(C)c1NC(=O)CSc1nnc(N)s1 | – | inactive: -14.4%
COc1ccc(-n2nc3c(N4CCC(C(=O)NCC(C)c5ccccc5)CC4)nnc(C)c3c2C)cc1 (stereo unspecified) | inconclusive: 31.6 µM [inhibitor, full curve, poor fit] | –
CC(/C=N/n1c(COc2ccccc2)n[nH]c1=S)=C\c1ccccc1 | inconclusive: 79.4 µM [inhibitor, partial curve] | –
